Source: PubChem BioAssay AID651582 (Sanford-Burnham Center for Chemical Genomics, 2012)
This is one part of the list. The main result of the screen is listed elsewhere. These columns were measured beside it and carry no call. Most of these compounds were active or inconclusive in the main read-out, so they are no random draw.

Assay: inhibitors of triacylglycerol accumulation, primary screen, cell-based, uHTS, fluorescence, H9c2 (AID 651582)
Conditions: H9c2 cells, Nile Red lipid (TAG) fluorescence; measured here:; at 12.5 µM; cells loaded with 200 µM oleic acid

Row | SMILES | DAPI nuclei signal change (viability), lower = more cytotoxic [%]
1 | CC(C)Sc1nnc(NC(=O)c2ccco2)s1 | -38.8
2 | CC1(C)Cc2nc3sc4c(SCC(=O)NCc5ccco5)ncnc4c3cc2CO1 | -21.4
3 | CN(C)CC(O)c1ccc(C=Cc2ccc(Cl)cc2)cc1 (stereo unspecified) | -40.5
4 | Cc1cc(=O)oc(C)c1C(=O)Nc1cccc(F)c1 | -10.6
5 | O=C(c1ccoc1)N1CCN(c2cc(-c3cccc(F)c3)nc3cc(-c4cccc(Cl)c4)nn23)CC1 | 119
6 | CSc1ccc2c(c1)N(CCC1CCCCN1C)c1ccccc1S2 (stereo unspecified) | -48.6
7 | Cc1noc(C)c1COc1cccc(C(=O)OCC(=O)N2CC(=O)Nc3ccccc32)c1 | -34.9
8 | COc1cc2c3c(cccc3c1)C(=O)N(CCN1CCCC1)C2=O | -40.7
9 | CC(C)(Oc1ccc(Cl)cc1)C(=O)Nc1ccc2oc(-c3ccncc3)nc2c1 | 8.87
10 | COc1ccc(CNC(=O)OCCN2CCN(S(=O)(=O)c3ccc(C)cc3)CCC2=O)cc1 | -39.3
11 | COc1ccc(Nc2nc(Nc3ccc(OC)cc3)nc(-n3[nH]c(=O)c(C)c3C)n2)cc1 | 1.43
12 | O=[N+]([O-])c1ccccc1N/N=C/c1c[nH]c2ccccc12 | -21
13 | N#Cc1ccc(-c2cccs2)nc1SCc1cccnc1 | -30.7
14 | CC(C)(C)c1ccc(/C=N/NC(=O)Cc2c[nH]c3ccccc23)cc1 | -3.64
15 | c1ccc(-c2nc(SCc3nc4ccccc4[nH]3)c3oc4ccccc4c3n2)cc1 | -1.57
16 | O=C(c1cnn2c1NC(c1ccc(Br)cc1)CC2C(F)(F)F)N1CCN(C23CC4CC(CC(C4)C2)C3)CC1 (stereo unspecified) | -10.4
17 | CC1CCN(C(=O)c2ccc3c(c2NCCO)C(=O)c2ccccc2C3=O)CC1 | -15.7
18 | COc1ccc2[nH]c3c(c2c1)CCN1C(=O)C(CC(=O)NC/C=C(\C)CCC=C(C)C)C[C@H](C(=O)N(C(C)C)C(C)C)[C@@]31C (stereo partly specified) | -10.6
19 | c1ccc(COc2ncnc3c2ncn3CCCNC2CCN(Cc3ccccc3)CC2)cc1 | -27.6
20 | Cc1onc(-c2ccccc2)c1C(=O)Nc1cc(C(F)(F)F)ccc1N1CCOCC1 | -19.3
21 | COc1cc(NC(=O)c2ccco2)c(OC)cc1NC(=O)CCC(=O)Nc1cccc(C)c1C | 1.37
22 | Nc1c(Cl)cc(-c2csc(N3CCCC3c3nc4cc(Cl)c(Cl)cc4n3CCCO)n2)cc1Cl (stereo unspecified) | -3.63
23 | Cc1ccc(C(=O)CC2(O)C(=O)N(CCc3ccccc3)c3ccc(Br)cc32)o1 (stereo unspecified) | -7.6

Row | SMILES | DAPI nuclei signal change (viability), lower = more cytotoxic [%]
24 | COc1ccc2cc3cc(C(=O)NCC4COc5ccccc5O4)oc3nc2c1 (stereo unspecified) | -25.3
25 | COc1ccc(C(=O)Nc2ccc(Cl)cc2C(=O)NCc2ccco2)cc1 | -13.7
26 | COc1ccc(C(=O)NNC(=O)Cc2ccc(-c3ccccc3)cc2)cc1OC | -8.94
27 | CN1CCN(c2cc(-c3cc(O)c4ncccc4c3)ccn2)CC1 | -15
28 | CN(C)CCCn1c2c3ccccc3ccc2c2oc(=O)c3ccccc3c21 | 128
29 | CC(C)n1cnc2c(N(C)c3ccccc3)nc(N(CCN(C)C)Cc3ccccc3)nc21 | -33
30 | CN1N=C(N)c2cn(C3OC(COP(=O)(O)O)C(O)C3O)c3ncnc1c23 (stereo unspecified) | -34.8
31 | COc1ccc(Nc2cccc3ccccc23)cc1 | 3.61
32 | Cn1cc(/C=N/n2cnc3scc(-c4ccc(Cl)cc4)c3c2=O)c2ccccc21 | -15.7
33 | CCC(C)(C)NC(=O)C(c1ccccc1F)N(Cc1ccco1)C(=O)c1csnn1 (stereo unspecified) | -5.46
34 | CC(C)C[C@H]1C(=O)N2CCC[C@H]2[C@]2(O)O[C@](NC(=O)[C@@H]3C=C4c5cccc6[nH]c(Br)c(c56)CC4N(C)C3)(C(C)C)C(=O)N12 (stereo partly specified) | -0.726
35 | Cc1cc(C)c(S(=O)(=O)Nc2ccc3c4c(cccc24)CC3)c(C)c1 | -37.1
36 | CCN1CCN(Cc2ccc(NC(=O)c3cc(NC(=O)c4cc(-c5ccc(OC)cc5)n[nH]4)cc(OC)c3)cc2C(F)(F)F)CC1 | -21.1
37 | COc1ccc2nc3cc([N+](=O)[O-])ccc3c(NNc3ccc([N+](=O)[O-])cc3)c2c1 | 0.915
38 | Cc1cc(N2CCN(Cc3cn(C)nc3-c3ccccc3F)CC2)cc(C)n1 | -40
39 | O=C(N/N=C/c1cc(Cl)ccc1O)c1ccncc1 | -18
40 | CCC(C)(C)NC(=O)C(c1ccc(OC)cc1)N(Cc1ccco1)C(=O)CCC(=O)Nc1cc(C)on1 (stereo unspecified) | -20
41 | CCCSc1ccc2nc(NC(=O)OC)[nH]c2c1 | -30.1
42 | Cc1ccc2oc(NC3=NC4(CCCC4)C4=C(CCCC4=O)N3)nc2c1 | -23.8
43 | c1cc2c(cc1C1CCCCC1)c1c3n2CCCNC3CCC1 (stereo unspecified) | -24.6
44 | CCOc1cc(/C=N/Nc2cc(C)nc(-n3nc(C)cc3C)n2)ccc1O | -32.1
45 | Cc1cc(C)nc(Sc2ncnc(N)c2[N+](=O)[O-])n1 | -38.2
46 | COc1ccccc1NC(=S)N=Nc1c(O)[nH]c2ccc(Br)cc12 | -23.5
